Results taken from the supplement of paper PMC11417369.
± gives the standard deviation of the averaged measurements. The list shows a part of the results.

Tested on: PfAP2-LT AP2 domain (GST-tagged)
Assay: gcPBM binding intensity (ln(normalized median fluorescence intensity)); higher = stronger DNA binding
Outline: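 An Agilent 4 × 180k array of primer-extended double-stranded 36-bp intergenic genomic probes, with negative controls, was incubated for 1 h with GST-tagged P. falciparum DNA-binding domains expressed in E. coli. Alexa488 anti-GST antibody detected bound protein, scanned at 488 nm. Binding intensity is the highest Masliner-normalised natural-log median intensity across replicate spots of either probe orientation.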

Row | Sequence | gcPBM binding intensity (ln)
1 | TAAAAAAATAAAATTACACACATATATAAATATATA [CACACA_site2620] | 8.68 ± 0.4
2 | TATATCCACATTTTTAGTACTTAAAAATAAATAAAC [XGTACX_site3826] | 8.49 ± 0.38
3 | TTCTGACCAATGCTATAAAATAATACAAAAGAAAAA [GTGCAC_negctrl_site3] | 8.46 ± 0.45
4 | TGAAGAGGAAACAAACAAAATGAATAATTAAAAAGG [CACACA_negctrl_site1601] | 8.79 ± 0.59
5 | TATATATAAATATGCTGTACGTTTTAATACGTTAAG [XGTACX_site2378] | 8.53 ± 0.38
6 | TAATTATATTCACTTGCTATATAAATTATATATATT [CACACA_negctrl_site526] | 8.59 ± 0.45
7 | CTCAAAGGAATATTCACACATAAATTATAGACTACA [CACACA_site6050] | 8.8 ± 0.45
8 | ATACACACTCAAAAAAGTACTTAACTACATGAATTG [XGTACX_site6366] | 8.89 ± 0.52
9 | AAGAAAAAAATATATGTTTATTTACTTTAATAATTT [TGCATGCA_negctrl_site168] | 8.27 ± 0.49
10 | GTATATATATATATATGCAAATGTATAAATCTACAT [CACACA_negctrl_site546] | 9.32 ± 0.2
11 | AAAAAAAGTTATATTACACACTTTATTCGTTAACTT [CACACA_site3013] | 8.82 ± 0.41
12 | ACAACAATATTTGAATGTACTCTATTTTCGTTGTTC [XGTACX_site593] | 8.96 ± 0.51
13 | ATATTTATGAAGTTCACACATATATATATATATATA [CACACA_site5954] | 9.72 ± 0.45
14 | GATAAATTAAAACACACACACATATATATATATATA [CACACA_site3962] | 9.99 ± 0.042
15 | TTATAATAAAATGAATATATATAATTTAAAATATTT [CACACA_negctrl_site1651] | 8.27 ± 0.54
16 | AAAAAAATAGTCTTCTTGCACTTTTTAATTTATTTT | 8.51 ± 0.51
17 | AATCACCAAATATGTACACACCTTAACATGTTTATA [CACACA_site5180] | 9.14 ± 0.38
18 | ATTATTCATTTATGTAGTACATTTTAATACATTTAA [XGTACX_site3599] | 8.68 ± 0.39
19 | AAAAAAAAAAAAGTTACACACAAATAAAATATTTGG [CACACA_site694] | 8.82 ± 0.55

Row | Sequence | gcPBM binding intensity (ln)
20 | AAGAAAAATTTAAACTGTACTTGTTTTCCAATGAAC [XGTACX_site4443] | 8.44 ± 0.4
21 | ATAAAAAAAAATAAATGTACAAATTAACAAAATAAT [XGTACX_site5048] | 8.96 ± 0.52
22 | TAATATTTACATATTACACACACGTATTATTAAATA [CACACA_site6340] | 8.98 ± 0.38
23 | TATTTTTTAAAAATGGGTACACATAAATAAATAAAT [XGTACX_site7643] | 8.58 ± 0.45
24 | ATCTAAACAAATAATACACACAATAAAATAGGAAGA [CACACA_site4072] | 9.24 ± 0.41
25 | TGTGAATAAATAAGCACACATAAACCCATATATAAA [CACACA_site4103] | 9.16 ± 0.36
26 | TTCAAAATAAAAAATTCACACACATATATATATATA [CACACA_site8653] | 9.44 ± 0.17
27 | TAATAATAGAGACACACACACATAGACATATAAATA [CACACA_site6729] | 9.89 ± 0.4
28 | TTATAATCAATGAATACACACATATATTTCATTAAT [CACACA_site5909] | 8.8 ± 0.42
29 | ATCTATGAAAAAGGTACATGCAATAAAGAAACATAT [TGCATGCA_site805] | 9.04 ± 0.36
30 | TTATACTATTTTTATACATGCATTTCTATATATTTT [TGCATGCA_site316] | 8.96 ± 0.56
31 | AAATAAAACAATTAACGTACAAGCATATATATATAT [XGTACX_site8508] | 9.63 ± 0.33
32 | ATTTATTAAATTTATAGTACTCAAAGATTTTTATTT [XGTACX_site6661] | 8.46 ± 0.53
33 | TATATATATATTATATGTACACAAGGAAATATGCAT [XGTACX_site5637] | 8.89 ± 0.32
34 | TATGTATAATTATTTTGTACTTATTAAATTTTTTTT [XGTACX_site5413] | 8.46 ± 0.4
35 | AAATAAAAAAAAATAGCACACATAAATATATTATAT [CACACA_site8155] | 8.89 ± 0.46
36 | GAGTAAATAAATAAATGTACATATATATATATTATC [XGTACX_site8466] | 8.99 ± 0.42
37 | AATATATATATATATATATATTTTTGTTAGAATATG [XGTACX_negctrl_site58] | 8.95 ± 0.32
38 | ATACATAAATATTGATGTACTCATTTAATATATTAT [XGTACX_site3992] | 8.77 ± 0.38

Row | Sequence | gcPBM binding intensity (ln)
39 | TATAATAAATATTAACGTACTCATATATATATATAT [XGTACX_site3871] | 9.26 ± 0.099
40 | GCAAGGAAATAATTGATAATATATATATATATATAT [GTGCAC_negctrl_site400] | 9.35 ± 0.23
41 | ATATAAGCGTATACATGTACATATATATCTTTGTAA [XGTACX_site2742] | 8.93 ± 0.3
42 | TATGTAAATCTCTTAAGAATTCGCTATATCTCTTTT [CACACA_negctrl_site1180] | 8.54 ± 0.45
43 | AGGCTACGAATAGAATGTACCCGAAATAAGGAATAT [XGTACX_site6012] | 8.88 ± 0.5
44 | CTAAAATACGGACACACACACACATATATATATATA [CACACA_site6138] | 10.3 ± 0.11
45 | ATTATCTCCGCCATGTGGACACATATAAGACATTTT [XGTACX_site2889] | 9.01 ± 0.22
46 | ATTGTATATAAATGAGTGCATACTATGTTGTTCTTA [GTGCAC_site9678] | 8.8 ± 0.41
47 | AAAAAAAAAAAAAACACACACACAAAAAAAAATATA [CACACA_site1104] | 9.68 ± 0.35
48 | ATAATTATGAAGCATACATGCATGTCCTGGCTTAAA [TGCATGCA_site491] | 8.86 ± 0.43
49 | AAATTAGAAATACCTACACACTTATCAAAATAAATT [CACACA_site7132] | 8.83 ± 0.35
50 | AAAATATGTAGACACATACACACATATATATATATA [CACACA_site1221] | 9.67 ± 0.42
51 | TTTTTTTTTTCAAATGCATGCAAAAAAAAAAAAATA [TGCATGCA_site945] | 8.14 ± 0.18
52 | TTTTCTTTTTCCAAAAGTACGTAATTTAAACATTTT [XGTACX_site2066] | 8.29 ± 0.51
53 | TATATGTATGTTTGTTTGTTTGTATTTTTTAAGGTA [XGTACX_negctrl_site619] | 8.87 ± 0.48
54 | ATCTAAATTTTTCCATGTACATATACTTTTATGCAT [XGTACX_site2683] | 9.07 ± 0.38
55 | TTATAATATGGATACACACACATATATAAATATATA [CACACA_site5314] | 9.26 ± 0.35
56 | AAAAAATAAATAAATACACACAAATCTATATTTATA [CACACA_site7243] | 8.86 ± 0.46
